Laboratory results published in patent US20210269542A1 (POTENZA THERAPEUTICS, published 2021).

T1: human GITR expressed on cells (human, UniProt Q9Y5U5 26-241)
T1 sequence: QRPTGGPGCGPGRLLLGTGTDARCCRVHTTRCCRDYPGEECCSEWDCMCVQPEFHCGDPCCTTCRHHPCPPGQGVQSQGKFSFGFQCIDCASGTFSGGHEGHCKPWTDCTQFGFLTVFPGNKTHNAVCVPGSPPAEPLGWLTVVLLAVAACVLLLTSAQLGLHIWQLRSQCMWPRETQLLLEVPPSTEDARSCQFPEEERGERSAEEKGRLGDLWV

T2: cyno GITR-Fc (cynomolgus monkey)
T2 construct: also called cGITR; cynomolgus GITR
T2 chain: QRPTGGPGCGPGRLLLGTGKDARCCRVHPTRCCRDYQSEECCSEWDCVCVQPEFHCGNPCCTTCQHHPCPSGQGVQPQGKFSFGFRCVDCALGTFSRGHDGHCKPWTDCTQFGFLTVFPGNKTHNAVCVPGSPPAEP

T3: human GITR-Fc (human, UniProt Q9Y5U5 26-162)
T3 construct: also called recombinant hGITR; wild type human GITR-Fc
T3 sequence: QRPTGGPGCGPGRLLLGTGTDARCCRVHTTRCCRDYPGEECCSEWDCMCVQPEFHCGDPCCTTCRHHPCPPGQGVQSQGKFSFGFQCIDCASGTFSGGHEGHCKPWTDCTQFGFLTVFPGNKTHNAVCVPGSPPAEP


Columns and labels:
[1] = molecular target: T1, human GITR expressed on cells; assay: cell-based or functional assay
cyno GITR-Fc = molecular target: T2, cyno GITR-Fc; assay: BLI Octet RED384, ABP on AHQ sensor, 100 nM antigen, single concentration;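 note: association and dissociation each tracked over 180 s, with dissociation run in antigen-free buffer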
human GITR-Fc = molecular target: T3, human GITR-Fc; assay: as above

Row | Binder | Average EC50 in Human HT1080 (IL-8 induction) [1] [pM] | binding result (cyno GITR-Fc) | Kd (human GITR-Fc) [pM]
1 | ABP9 (antibody, human IgG4 S228P, kappa) heavy: QLQLQESGPGLVKPSETLSLTCTVSGGSISSSSYAWGWIRQPPGKGLEWIGSIYYSGSTYYNPSLKSRVTISVDTSKNQFSLKLSSVTAADTAVYYCARDSGRGYGDYGGHHAFDIWGQGTMVTVSSASTKGPSVFPLAPSSKSTSGGTAALGCLVKDYFPEPVTVSWNSGALTSGVHTFPAVLQSSGLYSLSSVVTVPSSSLGTQTYICNVNHKPSNTKVDKRVEPKSCGGGGSQLQLQESGPGLVKPSETLSLTCTVSGGSISSSSYAWGWIRQPPGKGLEWIGSIYYSGSTYYNPSLKSRVTISVDTSKNQFSLKLSSVTAADTAVYYCARDSGRGYGDYGGHHAFDIWGQGTMVTVSSASTKGPSVFPLAPCSRSTSESTAALGCLVKDYFPEPVTVSWNSGALTSGVHTFPAVLQSSGLYSLSSVVTVPSSSLGTKTYTCNVDHKPSNTKVDKRV[human IgG4 Fc with S228P (EU numbers) left out] light: [about 100 residues left out][about 120 residues left out] | 180 |  | 
2 | ABP24 (antibody, human IgG4 S228P, kappa, TM format, N-terminal Fab: VH + IgG1 CH1 + GGGGS + VH + IgG4 S228P) heavy: QVQLQESGPGLVKPSQTLSLTCTVSGGSISSGGAVWSWIRQHPGKGLEWIGGIAYSGSTYYNPSLKSRVTISVDTSKNQFSLKLSSVTAADTAVYYCARDSVRGYGDYGGHHAFDIWGQGTMVTVSSASTKGPSVFPLAPSSKSTSGGTAALGCLVKDYFPEPVTVSWNSGALTSGVHTFPAVLQSSGLYSLSSVVTVPSSSLGTQTYICNVNHKPSNTKVDKRVEPKSCGGGGSQVQLQESGPGLVKPSQTLSLTCTVSGGSISSGGAVWSWIRQHPGKGLEWIGGIAYSGSTYYNPSLKSRVTISVDTSKNQFSLKLSSVTAADTAVYYCARDSVRGYGDYGGHHAFDIWGQGTMVTVSSASTKGPSVFPLAPCSRSTSESTAALGCLVKDYFPEPVTVSWNSGALTSGVHTFPAVLQSSGLYSLSSVVTVPSSSLGTKTYTCNVDHKPSNTKVDKRV[human IgG4 Fc with S228P (EU numbers) left out] light: [about 100 residues left out][about 120 residues left out] | 170 | no binding (tested: 100 nM) | 6600
3 | ABP31 (antibody, human IgG4 S228P, kappa) heavy: QVQLQESGPGLVKPSETLSLTCAVSGYSISSEYMWGWIRQPPGKGLEWIGLIYHSGKTYYNPSLKSRVTISVDTSKNQFSLKLSSVTAADTAVYYCARDSGRGYGDYGGHHAFDIWGQGTMVTVSSASTKGPSVFPLAPCSRSTSESTAALGCLVKDYFPEPVTVSWNSGALTSGVHTFPAVLQSSGLYSLSSVVTVPSSSLGTKTYTCNVDHKPSNTKVDKRV[human IgG4 Fc with S228P (EU numbers) left out]GGGGSQVQLQESGPGLVKPSETLSLTCAVSGYSISSEYMWGWIRQPPGKGLEWIGLIYHSGKTYYNPSLKSRVTISVDTSKNQFSLKLSSVTAADTAVYYCARDSGRGYGDYGGHHAFDIWGQGTMVTVSSASTKGPSVFPLAPSSKSTSGGTAALGCLVKDYFPEPVTVSWNSGALTSGVHTFPAVLQSSGLYSLSSVVTVPSSSLGTQTYICNVNHKPSNTKVDKRVEPKSC light: [about 100 residues left out][about 120 residues left out] | 180 | no binding (tested: 100 nM) | 7600
4 | ABP32 (antibody, human IgG4 S228P, kappa) heavy: QVQLQESGPGLVKPSQTLSLTCTVSGGSISSGGAVWSWIRQHPGKGLEWIGGIAYSGSTYYNPSLKSRVTISVDTSKNQFSLKLSSVTAADTAVYYCARDSVRGYGDYGGHHAFDIWGQGTMVTVSSASTKGPSVFPLAPCSRSTSESTAALGCLVKDYFPEPVTVSWNSGALTSGVHTFPAVLQSSGLYSLSSVVTVPSSSLGTKTYTCNVDHKPSNTKVDKRV[human IgG4 Fc with S228P (EU numbers) left out]GGGGSQVQLQESGPGLVKPSQTLSLTCTVSGGSISSGGAVWSWIRQHPGKGLEWIGGIAYSGSTYYNPSLKSRVTISVDTSKNQFSLKLSSVTAADTAVYYCARDSVRGYGDYGGHHAFDIWGQGTMVTVSSASTKGPSVFPLAPSSKSTSGGTAALGCLVKDYFPEPVTVSWNSGALTSGVHTFPAVLQSSGLYSLSSVVTVPSSSLGTQTYICNVNHKPSNTKVDKRVEPKSC light: [about 100 residues left out][about 120 residues left out] | 300 | no binding (tested: 100 nM) | 6400

The remaining binders from weak to strong by Kd (human GITR-Fc), led by results:

Row | Average EC50 in Human HT1080 (IL-8 induction) [1] [pM] | binding result (cyno GITR-Fc) | Kd (human GITR-Fc) [pM] | Binder
5 | 270 | no binding (tested: 100 nM) | 5700 | ABP29 (antibody, human IgG4 S228P, kappa) heavy: QVQLQESGPGLVKPSETLSLTCAVSGYSISSEYMWGWIRQPPGKGLEWIGLIYHSGKTYYNPSLKSRVTISVDTSKNQFSLKLSSVTAADTAVYYCARDSGRGYGDYGGHHAFDIWGQGTMVTVSSASTKGPSVFPLAPCSRSTSESTAALGCLVKDYFPEPVTVSWNSGALTSGVHTFPAVLQSSGLYSLSSVVTVPSSSLGTKTYTCNVDHKPSNTKVDKRV[human IgG4 Fc with S228P (EU numbers) left out]GGGGSGGGGSGGGGSQVQLQESGPGLVKPSETLSLTCAVSGYSISSEYMWGWIRQPPGKGLEWIGLIYHSGKTYYNPSLKSRVTISVDTSKNQFSLKLSSVTAADTAVYYCARDSGRGYGDYGGHHAFDIWGQGTMVTVSSASTKGPSVFPLAPSSKSTSGGTAALGCLVKDYFPEPVTVSWNSGALTSGVHTFPAVLQSSGLYSLSSVVTVPSSSLGTQTYICNVNHKPSNTKVDKRVEPKSC light: [about 100 residues left out][about 120 residues left out]
6 | 310 | no binding (tested: 100 nM) | 5600 | ABP30 (antibody, human IgG4 S228P, kappa) heavy: QVQLQESGPGLVKPSQTLSLTCTVSGGSISSGGAVWSWIRQHPGKGLEWIGGIAYSGSTYYNPSLKSRVTISVDTSKNQFSLKLSSVTAADTAVYYCARDSVRGYGDYGGHHAFDIWGQGTMVTVSSASTKGPSVFPLAPCSRSTSESTAALGCLVKDYFPEPVTVSWNSGALTSGVHTFPAVLQSSGLYSLSSVVTVPSSSLGTKTYTCNVDHKPSNTKVDKRV[human IgG4 Fc with S228P (EU numbers) left out]GGGGSGGGGSGGGGSQVQLQESGPGLVKPSQTLSLTCTVSGGSISSGGAVWSWIRQHPGKGLEWIGGIAYSGSTYYNPSLKSRVTISVDTSKNQFSLKLSSVTAADTAVYYCARDSVRGYGDYGGHHAFDIWGQGTMVTVSSASTKGPSVFPLAPSSKSTSGGTAALGCLVKDYFPEPVTVSWNSGALTSGVHTFPAVLQSSGLYSLSSVVTVPSSSLGTQTYICNVNHKPSNTKVDKRVEPKSC light: [about 100 residues left out][about 120 residues left out]
7 | 300 | no binding (tested: 100 nM) | 3700 | ABP23 (antibody, human IgG4 S228P, kappa, TM format, N-terminal Fab: VH + IgG1 CH1 + GGGGS + VH + IgG4 S228P) heavy: QVQLQESGPGLVKPSETLSLTCAVSGYSISSEYMWGWIRQPPGKGLEWIGLIYHSGKTYYNPSLKSRVTISVDTSKNQFSLKLSSVTAADTAVYYCARDSGRGYGDYGGHHAFDIWGQGTMVTVSSASTKGPSVFPLAPSSKSTSGGTAALGCLVKDYFPEPVTVSWNSGALTSGVHTFPAVLQSSGLYSLSSVVTVPSSSLGTQTYICNVNHKPSNTKVDKRVEPKSCGGGGSQVQLQESGPGLVKPSETLSLTCAVSGYSISSEYMWGWIRQPPGKGLEWIGLIYHSGKTYYNPSLKSRVTISVDTSKNQFSLKLSSVTAADTAVYYCARDSGRGYGDYGGHHAFDIWGQGTMVTVSSASTKGPSVFPLAPCSRSTSESTAALGCLVKDYFPEPVTVSWNSGALTSGVHTFPAVLQSSGLYSLSSVVTVPSSSLGTKTYTCNVDHKPSNTKVDKRV[human IgG4 Fc with S228P (EU numbers) left out] light: [about 100 residues left out][about 120 residues left out]
